Several values for one entry are separate records, joined by “and”; a condition that tells them apart may be missing. Equal entries are not always repeated. The campaign covered roughly 300,000 compounds. About 22,000 (7.3%) were called active. The inconclusive results got no clear call from the source; some entries with a clear call stand among them for comparison. No stated cut-off is given here; in the data, active means activity score below about -60%; inconclusive means mostly about -28% to -61%; inactive means positive scores.
Test: Activators via SNCA 5'UTR binding, MLPCN (AID 1814)
Settings: alpha-synuclein 5'UTR reporter, activators screen; active compounds read low; tested at 7.5 µM

| Compound | activity score |
| --- | --- |
| Cn1c(=O)oc2ccc(C(=O)CSc3nnnn3-c3ccccc3)cc21 | inconclusive: -26.9% |
| Cc1ccc(C)c(OCCn2cc(/C=C(\C#N)C(=O)NCc3ccco3)c3ccccc32)c1 | inactive: 52% |
| Cc1ccc(SSc2cc(C)ccc2N)c(N)c1 | active: -203% |
| COc1ccc(-c2cn(Cc3cccc(OC)c3)nn2)cc1 | inconclusive: -59.9% |
| Cn1nnnc1Sc1ncnc2scc(-c3ccccc3)c12 | inconclusive: -59.1% |
| O=C(COc1ccccc1)Nc1cccc(-c2nc3ccccc3[nH]2)c1 | active: -63.5% |
| C/C(=N\NC(=O)CSc1nc2ccccc2s1)c1ccco1 | inconclusive: -58.9% |
| OCCN=C1CCCc2c1[nH]c1ccc(Br)cc21 | inactive: 62.2% |
| COc1ccc2[nH]c(C(=O)N/N=C/c3cc(OC)c(OC)c(OC)c3)cc2c1 | inconclusive: -61.3% |
| O=C(CNS(=O)(=O)c1ccc(F)cc1)N1CCN(c2ccccc2)CC1 | inconclusive: -48.1% |
| Nc1c(NCCCN2CCOCC2)c2ccccc2oc1=O | inconclusive: -55.1% |
| CCOC(=O)Cc1csc(NC(=O)CSc2ncnc3c2cnn3-c2ccc(OC)cc2)n1 | inconclusive: -53.4% |
| C=CCn1c(O)c(N=NC(=S)Nc2ccccc2C)c2cc(S(=O)(=O)N3CCOCC3)ccc21 | inactive: 79.5% |
| O=C(NCCc1ccccc1)c1ccccc1NS(=O)(=O)N1CCCC1 | active: -88.1% |
| Cc1cc(NC(=O)CSc2nc(-c3ccco3)cc(C(F)(F)F)n2)no1 | inactive: 68.9% |
| Cc1c(C(=O)OCC(C)C)[nH]c2c1C(=O)CC(c1ccco1)C2 (stereo not given) | inactive: 69.9% |
| CCOC(=O)N1CCN(Cc2nc3cc(NC(=O)c4cccs4)ccc3n2C)CC1 | inconclusive: -40.2% |
| CCC(C)c1ccc(O)c(N)c1 (stereo not given) | inconclusive: -50.7% |
| COc1ccc2cc3cc(C(=O)NCc4cccnc4)oc3nc2c1 | inconclusive: -46.9% |
| CCOC(=O)c1nc(NCCc2ccccc2)sc1C | inconclusive: -51.9% |
| COc1cc(C(=O)Nc2ccc3c(c2)CCN3C(C)=O)cc(OC)c1OC | inactive: 96.9% |
| O=C(Nc1n[nH]c(C2CCCCC2)n1)C1CCCCC1 | inconclusive: -58.4% |
| O=[N+]([O-])c1ccc(N/N=C/c2ccc(OCc3cccc4ccccc34)cc2)nc1 | inconclusive: -57.4% |

| Compound | activity score |
| --- | --- |
| Cc1ccc(NC(=O)c2ccc(COc3ccccc3)o2)nc1 | inconclusive: -60.4% |
| CCOC(CNC(=O)c1cccn2c(=O)c3cc(Cl)ccc3nc12)OCC | inconclusive: -41.8% |
| O=C(c1cc(COc2cccc(C(F)(F)F)c2)on1)N1C[C@@H]2CCC[C@H]1C2 | inconclusive: -51.8% |
| O=C(CN1C(=O)NC2(CCOc3ccccc32)C1=O)Nc1ccc2c(c1)OCCO2 (stereo not given) | inconclusive: -55.4% |
| CCOC(=O)NC1(NCc2ccccc2)Oc2ccccc2O1 | inconclusive: -59.3% |
| COC(=O)c1cn(C(=O)/C=C/c2ccc(OC)c(OC)c2)c2ccccc12 | active: -78% |
| CC(=O)c1cccc(NC(=O)c2nccnc2C(=O)O)c1 | inconclusive: -55.1% |
| O=[N+]([O-])c1ccc(-c2cn(-c3ccc(Cl)cc3)c(=S)[nH]2)cc1 | inconclusive: -52.2% |
| CCn1cc(Cl)c(C(=O)Nc2ccc3c(c2)OCCO3)n1 | inconclusive: -58.8% |
| O=C(Nc1nccs1)c1cccc(NC(=O)C(F)(F)F)c1 | active: -85.7% |
| O=c1c(-c2ccccc2)nc(-c2ccccc2)cn1O | inconclusive: -46.5% |
| COCc1c(C(=O)N/N=C(/C)c2ccc(OCc3ccccc3)cc2)nnn1-c1nonc1N | inconclusive: -52.9% |
| Cc1c(CCC(=O)N[C@@H](C)C(=O)O)c(=O)oc2cc3oc4c(c3cc12)CCCC4 | inactive: 70.7% |
| CCn1c2ccccc2c2cc(NC(=O)CN(C)CC(=O)Nc3ccc(N4CCOCC4)cc3)ccc21 | active: -143% |
| Cc1ccc(C)c(S(=O)(=O)Nc2ccc3scnc3c2)c1 | inconclusive: -61.1% |
| O=C(Nc1nc(-c2cccs2)c(-c2ccccc2)s1)c1ccco1 | inconclusive: -47.7% |
| COc1ccc2c(c1)C(C)=CC(C)(C)N2S(=O)(=O)c1ccc(NC(C)=O)cc1 | inactive: 70.6% |
| COc1cc(C#N)ccc1OCC(=O)NCc1cccs1 | inconclusive: -32.3% |
| CCOC(=O)C1=C(C)OC(N)=C(C#N)C1c1cc2cc(C)ccc2nc1N1CCCCC1 (stereo not given) | inconclusive: -56.8% |
| O=C(Nc1cccc(O)c1)c1cc(-c2ccc3c(c2)OCO3)on1 | inactive: 69.3% |
| CCCc1ccc(C(=O)/C=C/N(C)C)cc1 | active: -126% |
| COc1ccc(-n2nnnc2-c2cccc(OC)c2)cc1 | inactive: 64.3% |
| Cc1ccc(/C=N/NC(=O)c2n[nH]c3c2CCCC3)cc1 | inactive: 76.9% |

| Compound | activity score |
| --- | --- |
| COc1ccc(N(Cc2cc3cc(OC)ccc3[nH]c2=O)S(=O)(=O)c2ccc(NC(C)=O)cc2)cc1 | inactive: 93.3% |
| O=C(NNc1nc2cc3c(cc2s1)OCO3)c1cccc(F)c1 | inconclusive: -51.5% |
| CCOc1ccc(C(=O)Nc2ccc(N3CCN(C)CC3)cc2)cc1Br | active: -75.3% |
| COc1ccc(-c2csc(NC(=O)c3ccccc3NS(=O)(=O)c3ccc(F)c(F)c3)n2)cc1 | inactive: 73.6% |
| C/C(=N\Nc1ncnc2sc(C)c(C)c12)c1ccccn1 | inactive: 105% |
| c1ccc2sc(NN=C3CCCC3)nc2c1 | inconclusive: -52.9% |
| NC(=O)c1c(NC(=O)C2CCCO2)sc2c1CCC2 (stereo not given) | inconclusive: -61.2% |
| CCc1ccc(Nc2nnc(SCC(=O)N(C)C3CCS(=O)(=O)C3)s2)cc1 (stereo not given) | inconclusive: -49.8% |
| CCc1ccc(/C=N/NC(=O)c2cc(-c3ccncc3)nc3ccccc23)s1 | inactive: 83.2% |
| CN1CCN(CCCNC(=O)c2ccc(CSCc3cccc(Cl)c3)o2)CC1 | inconclusive: -44% |
| Cc1cc(C)c(NC(=O)NC(=O)c2ccc(F)cc2)c(C)n1 | inconclusive: -54.6% |
| COc1cc(OC)cc(C(=O)Nc2ccc(-c3nc4ccccc4o3)cc2)c1 | inconclusive: -52.8% |
| Cc1cc(C(=O)CSc2nc3ccccc3c(=O)[nH]2)c(C)n1CC1CCCO1 (stereo not given) | active: -115% |
| c1ccc(C2CCC(N3CCC(N4CCCCC4)CC3)CC2)cc1 (stereo not given) | inconclusive: -55.4% |
| O=C(N/N=C/c1cc(Br)ccc1O)c1ccccc1Cl | inactive: 67.1% |
| Cc1csc(NC(=O)c2ccc(-c3ccc(Cl)cc3Cl)o2)n1 | inconclusive: -53.5% |
| C#CCOCCOCCOCCNc1nc(N2CCN(C(=O)CCCCCCCCCCNC(=O)[C@H](CO)n3cc(CCCSC)nn3)CC2)nc(N2CCN(C(=O)CCCCCCCCCCNC(=O)[C@H](CCCCN)n3cc(C[C@@H](C)CC)nn3)CC2)n1 | inactive: 110% |
| CCOc1ccc(CC(=O)Nc2ccc(NC(=O)c3ccco3)cc2)cc1OCC | inactive: 65.9% |
| Cc1cc(C(=O)CN2C(=O)c3ccccc3C2=O)c(C)n1C1CC1 | inconclusive: -46.6% |
| CCCCc1ccc(NC(=O)COCC)cc1 | inconclusive: -53.8% |
| CC1CCN(c2nc3ccc(C(=O)O)cc3s2)CC1 | inactive: 106% |
| O=C(CSc1nccn1Cc1ccco1)Nc1ccccc1C(F)(F)F | inconclusive: -46.4% |
| CCCCNC(=O)c1cc2c(=O)n3cccc(C)c3nc2s1 | inconclusive: -58.9% |

| Compound | activity score |
| --- | --- |
| CCC(=O)Nc1ccccc1C(=O)NC1CCCCC1 | inconclusive: -36.9% |
| Cc1ccccc1OCc1n(CC(=O)OC2CC(C)CCC2C(C)C)c2ccccc2[n+]1C (stereo not given) | inactive: 64.5% and inactive: 84.8% |
| COc1cc2nc(Nc3ccc(C)c(Cl)c3)nc(N)c2cc1OC | inactive: 98.5% |
| CC(C)c1nc(-c2ccc([N+](=O)[O-])cc2)cs1 | inconclusive: -57.7% |
| COc1cccc(Nc2ncnc3c2cnn3C)c1 | inconclusive: -57.2% |
| COc1ccc(C(=O)NCc2nnc(SCC(=O)c3ccccc3)n2C)cc1 | inconclusive: -49.5% |
| O=C(CCCOc1ccccc1)N1CCCCC1 | inactive: 70.6% |
| Cc1cc(C)cc(N(C(=O)Cn2nnc(-c3ccccc3)n2)C(C(=O)NC2CCCCC2)c2ccccn2)c1 (stereo not given) | inconclusive: -36% |
| O=C(COC(=O)c1cc(-c2cccc(Br)c2)nc2ccccc12)NCC1CCCO1 (stereo not given) | inconclusive: -34.4% |
| O=C(c1cccc(NS(=O)(=O)c2ccccc2)c1)N1CCCCC1 | inconclusive: -34% |
| O=C(NC1CCCCC1)c1ccc(-c2ccccc2[N+](=O)[O-])o1 | active: -83.3% |
| Cc1ccc2nc3sc(C(=O)N4CCOCC4)c(N)c3cc2c1 | inactive: 99.7% |
| O=C(CCl)Nc1cc(SCC(O)CO)cc([N+](=O)[O-])c1 (stereo not given) | inactive: 110% |
| Cc1cc(Cl)ccc1OCCCC(=O)N1CCOCC1 | active: -94.8% |
| N#CC1=C(N)C(C#N)(C#N)C2(C(=O)Nc3ccccc32)C2CCCC=C12 (stereo not given) | inconclusive: -55% |
| Nc1nonc1-n1nnc(C(=O)N/N=C/c2cc(Br)ccc2O)c1CNc1ccccc1 | inactive: 70.2% |
| CCCc1ccc(-c2cc(N)n[nH]2)cc1 | inconclusive: -61.3% |
| CCN(CC)c1nc(NN)nc(Nc2ccc(C)c(Cl)c2)n1 | inconclusive: -35.5% |
| CC(C)(C)NC(=O)c1cccc(NC(=O)c2cccc(O)c2)c1 | inconclusive: -32.6% |
| Cc1ccc(-c2nn(-c3ccccc3)cc2C(=O)N2CCN(c3ccccn3)CC2)cc1 | inconclusive: -45.3% |
| O=C(N/N=C/c1ccc([N+](=O)[O-])o1)c1cc2ccccc2o1 | inactive: 65.8% |
